PubChem BioAssay AID624172 (National Center for Advancing Translational Sciences (NCATS), 2012)
Among all 380,000 compounds or so, about 25 (0.007%) were called active. This list was built around the results that the source calls inconclusive (neither active nor inactive); the mix of calls is not that of the screen. Calls follow the shape of the dose curve; as a rule, active = well fitted activation curve with a large enough effect; inconclusive = small, poorly fitted or top-dose-only effect; inactive = no such curve, though single readings can be large or run the other way. No potency is given beside an inconclusive call; the fits are too rough.

Biological target: Glucagon-like peptide 1 receptor (Homo sapiens) (UniProt P43220)
Assay: qHTS of GLP-1 Receptor Agonists; as to activation: % of control where 0% means no effect
Conditions: HEK293 GLP-1R CRE-luciferase, luminescence, 4-6 h, cells express a hypersensitive GLP-1R form; activation: at 45.6 µM (top of the series) unless noted
From the text: The overall goal of this project was to develop a novel assay for discovering small molecule ligands for class B1 G protein-coupled receptors (GPCRs). Very few agonists (or inverse agonists) with generally weak activity for this entire group of physiologically important receptors are known to date. To establish proof-of-principle that this critical bottleneck can be overcome with a suitable screening approach, our studies focused on the class B1 receptor for glucagon-like peptide-1 (GLP-1R), a potential therapeutic target for diabetes and neurodegenerative disease.
The assay was developed in a "mix and measure" format using a cell-based functional readout. Toward this goal, stably transfected HEK293 cell clones were established that co-express (i) a cAMP-responsive luciferase reporter gene, and (ii) GLP-1Rs that upon ligand interaction either stimulate (agonists) or inhibit (inverse agonists) luciferase activity. In different cell lines to be used for screening, expressed GLP-1Rs are specifically optimized for high sensitivity detection of either weak agonists (hypersensitive receptor) or inverse agonists (constitutively active receptor mutant). In addition, control cell lines were developed that express either the cAMP-responsive reporter gene without recombinant GLP-1Rs (enabling initial exclusion of GLP-1R independent effects of candidate probes), or the reporter gene together with wild type GLP-1Rs (for confirmation of probe activity at this receptor), or the reporter gene in combination with the constitutively active orphan receptor GPR119 (enabling initial exclusion of GLP-1R independent inhibitory effects of candidate inverse agonists).
To that end, this assay was optimized for 1536-well format and screened against the MLSMR.
NIH Molecular Libraries Probe Production Network [MLPCN]
NIH Chemical Genomics Center [NCGC]
PI Name: Martin Beinborn, Tufts Medical Center
In a white solid 1536-well plate, 6 uL of cells are dispensed in DMEM without phenol red, 10% Nu serum, and 1% pen-strep medium. The plates are then incubated for 12 hours at 37 deg C at 5% CO2 before 23 nL of compounds are added. After a 4-6 hr incubation at37 deg C and 5% CO2, 3 uL of detection reagent are added and after a 12 min incubation at RT, a luminescent read is obtained on the ViewLux.
Potency is read from the fitted curve at half-maximal effect; tags tell the direction and shape of the fitted curve.

Sequence of UniProt P43220 (P43220 whole entry, looked up): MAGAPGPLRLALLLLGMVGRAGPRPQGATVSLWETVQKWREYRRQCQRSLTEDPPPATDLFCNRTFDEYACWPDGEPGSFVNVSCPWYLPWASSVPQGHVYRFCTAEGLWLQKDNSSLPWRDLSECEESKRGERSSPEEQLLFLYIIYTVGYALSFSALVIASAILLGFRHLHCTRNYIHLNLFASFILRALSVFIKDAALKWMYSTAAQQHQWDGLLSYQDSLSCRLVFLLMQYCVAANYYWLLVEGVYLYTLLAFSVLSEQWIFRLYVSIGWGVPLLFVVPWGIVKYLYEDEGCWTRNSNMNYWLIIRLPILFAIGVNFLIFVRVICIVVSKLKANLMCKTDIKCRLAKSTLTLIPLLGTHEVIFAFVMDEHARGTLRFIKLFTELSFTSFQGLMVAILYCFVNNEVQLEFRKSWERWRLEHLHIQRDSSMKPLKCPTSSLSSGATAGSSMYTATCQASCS

Q: Which Potency does the source give for `COc1ccccc1CC(=O)O/N=C(\N)Cc1cccc2ccccc12` here?
A: inconclusive [activator, single point]

Q: Which Potency does the source give for `COc1ccc(/C(=C\Nc2ccc(C)c(C)c2)C(C)=O)cc1OC` here?
A: inconclusive [activator, partial curve]

Q: With `CC(=O)N(CCCN(C)C)CCC(C)CCC=C(C)C` (stereo unspecified) as the compound, how does the “activation” value read?
A: inactive: -0.794%

Q: `CC(C)NC[C@@H](O)c1ccc(O)c(O)c1` was tested. Which activation did it give?
A: inconclusive: 79.5% [activator]

Q: Which Potency does the source give for `Cc1cc(C)c(C#N)c(SCc2nnc(-c3ccccc3[N+](=O)[O-])o2)n1` here?
A: inconclusive [activator, partial curve, poor fit]

Q: Which Potency does the source give for `CCOc1cc2c(C#N)c(N3CCOCC3)nc(N)c2c(N)n1` here?
A: inconclusive [activator, partial curve]

Q: With `CCC(=O)NC(=Nc1nc2ccccc2s1)NC(=O)CC` as the compound, how does the activation read?
A: inconclusive: 30.2% [activator]

Q: How did the Potency turn out when `COc1cccc(/C=N/NC(=S)NCCc2ccccc2)c1` was run?
A: inconclusive [activator, single point]

Q: With `CCOC(=O)c1c(C)[nH]c(C)c1C(=O)COC(=O)c1sccc1C` as the compound, how does the Potency read?
A: inconclusive [activator, single point]

Q: How did the Potency turn out when `CC[C@H](NC(C)C)[C@H](O)c1ccc(O)c(O)c1` was run?
A: inconclusive [activator, full curve, poor fit]

Q: `COc1ccc(OC)c(-c2csc(NC(=O)Cc3ccccc3F)n2)c1` was tested. Which Potency did it give?
A: inconclusive [activator, partial curve, poor fit]

Q: For `COc1ccc(NCc2nc3ccccc3n2CCOc2ccc(C)cc2)cc1`, which “activation” value is on record?
A: inactive: 15%

Q: How did the “activation” value turn out when `Cn1c(=O)n(Cc2ccccc2)c(=O)c2c1nc(NCC1CCCO1)n2Cc1ccccc1` (stereo unspecified) was run?
A: inactive: 0.553%

Q: `C=CCc1ccc(OCCOc2ccc(/C=N/n3cnnc3)cc2OCC)c(OC)c1` was tested. Which Potency did it give?
A: inconclusive [activator, partial curve, poor fit]

Q: With `Brc1ccc2nc(-c3ccccc3)c(Cc3ccccc3)n2c1` as the compound, how does the Potency read?
A: inconclusive [activator, full curve, poor fit]

Q: With `COc1cc(/C=N/Nc2nc3ccccc3s2)ccc1O` as the compound, how does the Potency read?
A: inconclusive [activator, partial curve, poor fit]

Q: How did the Potency turn out when `CCOC(=O)c1c(CC(C)C)csc1NC=O` was run?
A: inconclusive [activator, single point]

Q: For `CCOc1cc(C2CC(=O)N3CN(C4CCCCC4)CSC3=C2C#N)ccc1O` (stereo unspecified), which “activation” value is on record?
A: inactive: -2.77%

Q: How did the “activation” value turn out when `O=C(c1cccc(F)c1)N1CCC(N2CCOCC2)CC1` was run?
A: inactive: 0.33%

Q: For `COC(=O)Cc1ccc(OC2(C)CCN(Cc3csc4ccccc34)C2)cc1` (stereo unspecified), which “activation” value is on record?
A: inactive: -6.85%

Q: Which Potency does the source give for `Cc1nc(C)c(-c2ccc(SCc3ccccc3F)nn2)s1` here?
A: inconclusive [activator, single point]

Q: `Cc1nc2nc(SCC(=O)c3cccc([N+](=O)[O-])c3)[nH]c2cc1Br` was tested. Which Potency did it give?
A: inconclusive [activator, full curve, poor fit]

Q: How did the Potency turn out when `CCOC(=O)c1ccc(N2CCCCC2)c(NS(=O)(=O)c2ccc(C)cc2)c1` was run?
A: inconclusive [activator, single point]

Q: How did the “activation” value turn out when `CC(C)CCn1c(-c2nonc2N)nc2ccccc21` was run?
A: inactive: 0.944%

Q: With `COc1ccc(N=Nc2cnc(C)nc2-c2ccccc2)cc1` as the compound, how does the Potency read?
A: inconclusive [activator, partial curve, poor fit]

Q: For `CC(c1ccccc1)n1c(-c2cccs2)nc2c(c(=O)c3ccccc3n2C)c1=O` (stereo unspecified), which “activation” value is on record?
A: inactive: -1.41%

Q: How did the Potency turn out when `COc1ccc(-c2cc(NC=O)c3ncc(-c4cc(OC)c(OC)c(OC)c4)n3c2)cc1` was run?
A: inconclusive [activator, partial curve, poor fit]

Q: Which activation does the source give for `CCOC(=O)c1sc2nc(CC(=O)OC)nc(N(C)CCc3ccccn3)c2c1C` here?
A: inconclusive: 44.3% [activator]

Q: Which Potency does the source give for `O=C1C2CC=C(Cl)CC2C(=O)N1CC1OCCc2ccccc21` (stereo unspecified) here?
A: inconclusive [activator, partial curve, poor fit]

Q: With `Cc1cc(C)c(S(=O)(=O)c2ccccc2)c(OC(=O)c2c(Cl)cc(Cl)cc2Cl)n1` as the compound, how does the “activation” value read?
A: inactive: -10.9%

Q: How did the Potency turn out when `CCOc1ccc(-c2nnc3n2N=C(c2ccc(OC)cc2)CS3)cc1` was run?
A: inconclusive [activator, full curve, poor fit]

Q: With `Cc1ccc(S(=O)(=O)Nc2cccc(C(=O)NC3CCN(Cc4ccccc4)CC3)c2)cc1F` as the compound, how does the “activation” value read?
A: inactive: -7.13%

Q: With `Cc1cccc(C)c1NC(=O)C1CSC2(C)CCC(=O)N12` (stereo unspecified) as the compound, how does the “activation” value read?
A: inactive: -2.87%

Q: `CCOC(=O)c1cc(-c2ccccc2)n(CCC(=O)NC(C)CC)c1C` (stereo unspecified) was tested. Which Potency did it give?
A: inconclusive [activator, single point]

Q: For `CCCn1c(=O)c2c(nc3n2CCCN3CCc2ccccc2)n(C)c1=O`, which “activation” value is on record?
A: inactive: 16.3%

Q: Which Potency does the source give for `CC(=O)Nc1ccc(S(=O)(=O)N[C@@H](C)C(=O)OCc2cc([N+](=O)[O-])cc3c2OCOC3)cc1` here?
A: inconclusive [activator, partial curve, poor fit]

Q: How did the “activation” value turn out when `Cc1ccc(C(=O)C2CCN(CC(=O)NC3CCCC3)CC2)cc1` was run?
A: inactive: 10.9%

Q: With `CC1CCCCN1CCCOC(=O)c1ccccc1` (stereo unspecified) as the compound, how does the activation read?
A: inconclusive: 47.1% [activator]

Q: With `O=C1c2ccccc2S(=O)(=O)c2cc(C(=O)N(c3ccccn3)c3ccccn3)ccc21` as the compound, how does the Potency read?
A: inconclusive [activator, single point]

Q: Which “activation” value does the source give for `COc1cc(/C=C2\SC(=O)N(CC(=O)Nc3ccccc3F)C2=O)cc(Cl)c1O` here?
A: inactive: -2.14%

Q: How did the Potency turn out when `CCOC(=O)c1[nH]c(C)c(C(=O)OCC)c1C` was run?
A: inconclusive [activator, single point]

Q: Which “activation” value does the source give for `CCOC(CCNC(=O)c1cn(C)c(=O)c2c1c1ccccc1n2C)OCC` here?
A: inactive: 6.71%

Q: How did the “activation” value turn out when `CC(=O)Nc1cc(C(F)(F)F)ccc1OCC1CCCO1` (stereo unspecified) was run?
A: inactive: -1.89%

Q: Which Potency does the source give for `Cc1cccc(Nc2nc(N)c([N+](=O)[O-])c(NCc3ccco3)n2)c1` here?
A: inconclusive [activator, partial curve, poor fit]

Q: Which Potency does the source give for `COC(=O)c1ccc(COC(=O)c2cccnc2Cl)cc1` here?
A: inconclusive [activator, single point]

Q: Which “activation” value does the source give for `Cc1c(C)c2c(c(C)c1OC(=O)CCC(=O)O)CC[C@@](C)(CCC[C@H](C)CCC[C@H](C)CCCC(C)C)O2` here?
A: inactive: 11.1%

Q: `COc1ccccc1NC(=O)COc1cccc(-n2cnnn2)c1` was tested. Which Potency did it give?
A: inconclusive [activator, single point]

Q: Which Potency does the source give for `COc1ccc(C2=Nn3c(nnc3-c3ccco3)SC2)cc1OC` here?
A: inconclusive [activator, partial curve]

Q: How did the “activation” value turn out when `C/C(=C(/CCOC(=O)c1ccccc1)SS/C(CCOC(=O)c1ccccc1)=C(\C)N(C=O)Cc1cnc(C)nc1N)N(C=O)Cc1cnc(C)nc1N` was run?
A: inactive: -3.72%

Q: For `COc1ccc(C(C)(C)C)cc1NC(=O)c1ccc2ncsc2c1`, which Potency is on record?
A: inconclusive [activator, single point]

Q: How did the Potency turn out when `COc1ccccc1-c1nnc2sc(C3CCCCC3)nn12` was run?
A: inconclusive [activator, single point]

Q: `Cc1ccccc1CN1CCC(CNc2ncnc3onc(-c4ccc(Cl)cc4)c23)CC1` was tested. Which Potency did it give?
A: inconclusive [activator, single point]

Q: How did the Potency turn out when `CCOc1ccc(NC(=O)CN(c2ccc([N+](=O)[O-])cc2)S(=O)(=O)c2ccccc2)cc1` was run?
A: inconclusive [activator, single point]

Q: How did the “activation” value turn out when `Cc1ccc(-c2nnc(N3CCCCC3)c3ccccc23)cc1S(=O)(=O)N1CCN(C)CC1` was run?
A: inactive: 25%

Q: `COc1ccc(COc2cc(-c3cccc(OC)c3)nc3ccc(N)cc23)cc1` was tested. Which “activation” value did it give?
A: inactive: 14.1%

Q: Which “activation” value does the source give for `Cc1ccc(C(=O)C2CCN(S(=O)(=O)c3ccc(C(=O)O)cc3)CC2)cc1` here?
A: inactive: -2.27%

Q: Which “activation” value does the source give for `Cc1ccc(Nc2nc(N)nc(CSC(=S)N3CCOCC3)n2)cc1` here?
A: inactive: 8.66%

Q: `Nc1cc(OC(=O)c2ccc(F)cc2)nn1S(=O)(=O)c1ccc(F)cc1` was tested. Which activation did it give?
A: inconclusive: 33% [activator]

Q: `CC1(C(=O)NC2CCN(Cc3ccccc3)CC2)CCN1CCc1ccccc1` (stereo unspecified) was tested. Which “activation” value did it give?
A: inactive: -9.37%

Q: For `O=C(Nc1cccc(NC(=O)c2cccs2)c1)c1ccc([N+](=O)[O-])o1`, which “activation” value is on record?
A: inactive: 0.977%

Q: Which Potency does the source give for `CC(C)Sc1nc2ccccc2n2cnnc12` here?
A: inconclusive [activator, partial curve, poor fit]

Q: How did the Potency turn out when `COc1cccc(-c2cc(NC=O)c3ncc(-c4cc(OC)c(OC)c(OC)c4)n3c2)c1` was run?
A: inconclusive [activator, partial curve]

Q: `CC(C)(CO)NC12CC3CC(CC(C3)C1)C2` was tested. Which “activation” value did it give?
A: inactive: 1.71%

Q: Which “activation” value does the source give for `O=C(CSc1ccccc1)NNC(=O)c1ccncc1` here?
A: inactive: 2.67%

Q: Which Potency does the source give for `COc1ccc(Cl)c(-c2cc(C(=O)Nc3ccccc3)[nH]n2)c1` here?
A: inconclusive [activator, partial curve, poor fit]

Q: For `CC1(C)Cc2c(c(-c3ccco3)nc3sc4c(NCCCO)ncnc4c23)CO1`, which Potency is on record?
A: inconclusive [activator, partial curve]

Q: Which Potency does the source give for `C=CCOc1ccc(CNc2nccs2)cc1OCC` here?
A: inconclusive [activator, partial curve, poor fit]

Q: Which Potency does the source give for `CCNc1nc(NC(C)C)nc(N(C#N)C(C)C(=O)N(C)C)n1` (stereo unspecified) here?
A: inconclusive [activator, partial curve, poor fit]

Q: Which activation does the source give for `O=C(O)c1ccc(-n2nnc3ccccc32)c([N+](=O)[O-])c1` here?
A: inconclusive: 42.3% [activator]

Q: With `CC(C)N(C)c1ncnc2c1ncn2[C@H]1CN(Cc2ccco2)C[C@@H](CO)O1` as the compound, how does the Potency read?
A: inconclusive [activator, partial curve, poor fit]

Q: With `C/C=C1\COC(C(=O)NCc2ccccc2)(C(F)(F)F)C=C1C=C1CCCCC1` (stereo unspecified) as the compound, how does the “activation” value read?
A: inactive: -5.66%
